# This is one part of the list.
# B1: MGL6A (Homo sapiens) (protein)
# chain: MTRTYENFQYLENKVKVQGFKNGPLPLQSLLQRLCSGPCHLLLSLGLGLLLLVIICVVGFQNSKFQRDLVTLRTDFSNFTSNTVAEIQALTSQGSSLEETIASLKAEVEGFKQERQAVHSEMLLRVQQLVQDLKKLTCQVATLNNNGEEASTEGTCCPVNWVEHQDSCYWFSHSGMSWAEAEKYCQLKNAHLVVINSREEQNFVQKYLGSAYTWMGLSDPEGAWKWVDGTDYATGFQNWKPGQPDDWQGHGLGGGEDCAHFHPDGRWNDDVCQRPYHWVCEAGLGQTSQESH
# What was measured:
# Experiment in all cases: glycan array binding signal (z-score within array); higher = stronger binding
# Details in all cases: glycan notation: IUPAC condensed, linker removed
# [1] = target: Gal(b1-4)GlcNAc(b1-3)Gal(b1-4)GlcNAc(b1-2)[Gal(b1-4)GlcNAc(b1-3)Gal(b1-4)GlcNAc(b1-6)]Man(a1-6)[Gal(b1-4)GlcNAc(b1-3)Gal(b1-4)GlcNAc(b1-2)Man(a1-3)]Man(b1-4)GlcNAc(b1-4)GlcNAc
# In short: (§1)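 Glycan array binding is given as a within-array Z-score, which can be read as non-binding when negative. The arrays, 3228 of them, came from the Consortium for Functional Glycomics database and were retained only where the protein sequence was available. Z-scores were averaged across arrays of the same protein sequence at different concentrations or buffers and across linkers.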
# [2] = target: Gal(b1-4)GlcNAc(b1-3)Gal(b1-4)GlcNAc(b1-2)[Gal(b1-4)GlcNAc(b1-3)Gal(b1-4)GlcNAc(b1-6)]Man(a1-6)[Gal(b1-4)GlcNAc(b1-3)Gal(b1-4)GlcNAc(b1-2)Man(a1-3)]Man(b1-4)GlcNAc(b1-4)[Fuc(a1-6)]GlcNAc
# In short: as §1
# [3] = target: Gal(b1-4)GlcNAc(b1-3)Gal(b1-4)GlcNAc(b1-3)Gal(b1-4)GlcNAc
# In short: as §1
# [4] = target: Gal(b1-4)GlcNAc(b1-3)Gal(b1-4)GlcNAc(b1-3)Gal(b1-4)GlcNAc(b1-2)Man(a1-3)[Gal(b1-4)GlcNAc(b1-3)Gal(b1-4)GlcNAc(b1-3)Gal(b1-4)GlcNAc(b1-2)Man(a1-6)]Man(b1-4)GlcNAc(b1-4)GlcNAc
# In short: as §1
# [5] = target: Gal(b1-4)GlcNAc(b1-3)Gal(b1-4)GlcNAc(b1-3)Gal(b1-4)GlcNAc(b1-2)Man(a1-3)[Gal(b1-4)GlcNAc(b1-3)Gal(b1-4)GlcNAc(b1-3)Gal(b1-4)GlcNAc(b1-2)Man(a1-6)]Man(b1-4)GlcNAc(b1-4)[Fuc(a1-6)]GlcNAc
# In short: as §1
# [6] = target: Gal(b1-4)GlcNAc(b1-3)Gal(b1-4)GlcNAc(b1-3)Gal(b1-4)GlcNAc(b1-2)[Gal(b1-4)GlcNAc(b1-3)Gal(b1-4)GlcNAc(b1-3)Gal(b1-4)GlcNAc(b1-6)]Man(a1-6)[Gal(b1-4)GlcNAc(b1-3)Gal(b1-4)GlcNAc(b1-3)Gal(b1-4)GlcNAc(b1-2)Man(a1-3)]Man(b1-4)GlcNAc(b1-4)[Fuc(a1-6)]GlcNAc
# In short: as §1
# [7] = target: Gal(b1-4)GlcNAc(b1-3)Gal(b1-4)GlcNAc(b1-3)Gal(b1-4)GlcNAc(b1-3)Gal(b1-4)GlcNAc(b1-2)Man(a1-3)[Gal(b1-4)GlcNAc(b1-3)Gal(b1-4)GlcNAc(b1-3)Gal(b1-4)GlcNAc(b1-3)Gal(b1-4)GlcNAc(b1-2)Man(a1-6)]Man(b1-4)GlcNAc(b1-4)GlcNAc
# In short: as §1
# [8] = target: Gal(b1-4)GlcNAc(b1-3)Gal(b1-4)GlcNAc(b1-3)Gal(b1-4)GlcNAc(b1-3)Gal(b1-4)GlcNAc(b1-2)Man(a1-3)[Gal(b1-4)GlcNAc(b1-3)Gal(b1-4)GlcNAc(b1-3)Gal(b1-4)GlcNAc(b1-3)Gal(b1-4)GlcNAc(b1-2)Man(a1-6)]Man(b1-4)GlcNAc(b1-4)[Fuc(a1-6)]GlcNAc
# In short: as §1
# [9] = target: Gal(b1-4)GlcNAc(b1-3)Gal(b1-4)GlcNAc(b1-3)Gal(b1-4)GlcNAc(b1-3)Gal(b1-4)GlcNAc(b1-2)[Gal(b1-4)GlcNAc(b1-3)Gal(b1-4)GlcNAc(b1-3)Gal(b1-4)GlcNAc(b1-3)Gal(b1-4)GlcNAc(b1-6)]Man(a1-6)[Gal(b1-4)GlcNAc(b1-3)Gal(b1-4)GlcNAc(b1-3)Gal(b1-4)GlcNAc(b1-3)Gal(b1-4)GlcNAc(b1-2)Man(a1-3)]Man(b1-4)GlcNAc(b1-4)[Fuc(a1-6)]GlcNAc
# In short: as §1
# [10] = target: Gal(b1-4)GlcNAc(b1-3)Gal(b1-4)GlcNAc(b1-3)Gal(b1-4)GlcNAc(b1-3)Gal(b1-4)GlcNAc(b1-3)Gal(b1-4)GlcNAc(b1-2)Man(a1-3)[Gal(b1-4)GlcNAc(b1-3)Gal(b1-4)GlcNAc(b1-3)Gal(b1-4)GlcNAc(b1-3)Gal(b1-4)GlcNAc(b1-3)Gal(b1-4)GlcNAc(b1-2)Man(a1-6)]Man(b1-4)GlcNAc(b1-4)GlcNAc
# In short: as §1
# [11] = target: Gal(b1-4)GlcNAc(b1-3)Gal(b1-4)GlcNAc(b1-3)Gal(b1-4)GlcNAc(b1-3)Gal(b1-4)GlcNAc(b1-3)Gal(b1-4)GlcNAc(b1-2)Man(a1-3)[Gal(b1-4)GlcNAc(b1-3)Gal(b1-4)GlcNAc(b1-3)Gal(b1-4)GlcNAc(b1-3)Gal(b1-4)GlcNAc(b1-3)Gal(b1-4)GlcNAc(b1-2)Man(a1-6)]Man(b1-4)GlcNAc(b1-4)[Fuc(a1-6)]GlcNAc
# In short: as §1
# [12] = target: Gal(b1-4)GlcNAc(b1-3)Gal(b1-4)GlcNAc(b1-3)Gal(b1-4)GlcNAc(b1-3)Gal(b1-4)GlcNAc(b1-3)Gal(b1-4)GlcNAc(b1-2)[Gal(b1-4)GlcNAc(b1-3)Gal(b1-4)GlcNAc(b1-3)Gal(b1-4)GlcNAc(b1-3)Gal(b1-4)GlcNAc(b1-3)Gal(b1-4)GlcNAc(b1-6)]Man(a1-6)[Gal(b1-4)GlcNAc(b1-3)Gal(b1-4)GlcNAc(b1-3)Gal(b1-4)GlcNAc(b1-3)Gal(b1-4)GlcNAc(b1-3)Gal(b1-4)GlcNAc(b1-2)Man(a1-3)]Man(b1-4)GlcNAc(b1-4)[Fuc(a1-6)]GlcNAc
# In short: as §1
# [13] = target: Gal(b1-4)GlcNAc(b1-3)Gal(b1-4)GlcNAc(b1-3)Gal(b1-4)GlcNAc(b1-3)Gal(b1-4)GlcNAc(b1-3)Gal(b1-4)GlcNAc(b1-3)Gal(b1-4)GlcNAc(b1-2)Man(a1-3)[Gal(b1-4)GlcNAc(b1-3)Gal(b1-4)GlcNAc(b1-3)Gal(b1-4)GlcNAc(b1-3)Gal(b1-4)GlcNAc(b1-3)Gal(b1-4)GlcNAc(b1-3)Gal(b1-4)GlcNAc(b1-2)Man(a1-6)]Man(b1-4)GlcNAc(b1-4)GlcNAc
# In short: as §1
# [14] = target: Gal(b1-4)GlcNAc(b1-3)Gal(b1-4)GlcNAc(b1-3)GalNAc
# In short: as §1
# [15] = target: Gal(b1-4)GlcNAc(b1-3)Gal(b1-4)GlcNAc(b1-3)[Gal(b1-4)GlcNAc(b1-3)Gal(b1-4)GlcNAc(b1-6)]GalNAc
# In short: as §1
# [16] = target: Gal(b1-4)GlcNAc(b1-3)Gal(b1-4)GlcNAc(b1-6)[Gal(b1-3)]GalNAc
# In short: as §1
# [17] = target: Gal(b1-4)GlcNAc(b1-3)Gal(b1-4)[Fuc(a1-3)]GlcNAc(b1-3)Gal(b1-4)[Fuc(a1-3)]GlcNAc
# In short: as §1
# [18] = target: Gal(b1-4)GlcNAc(b1-3)GalNAc
# In short: as §1
# [19] = target: Gal(b1-4)GlcNAc(b1-3)[Fuc(a1-3)GlcNAc(b1-6)]Gal(b1-4)Glc
# In short: as §1
# [20] = target: Gal(b1-4)GlcNAc(b1-3)[Gal(b1-4)GlcNAc(b1-6)]Gal(b1-4)GlcNAc
# In short: as §1
# [21] = target: Gal(b1-4)GlcNAc(b1-3)[GlcNAc(b1-6)]Gal(b1-4)GlcNAc
# In short: as §1
# [22] = target: Gal(b1-4)GlcNAc(b1-6)Gal(b1-4)GlcNAc
# In short: as §1
# [23] = target: Gal(b1-4)GlcNAc(b1-6)Gal(b1-4)GlcNAc(b1-6)GalNAc
# In short: as §1
# [24] = target: Gal(b1-4)GlcNAc(b1-6)GalNAc
# In short: as §1
# [25] = target: Gal(b1-4)GlcNAc(b1-6)[Gal(b1-3)]GalNAc
# In short: as §1
# [26] = target: Gal(b1-4)GlcNAc(b1-6)[Gal(b1-4)GlcNAc(b1-3)]GalNAc
# In short: as §1
# [27] = target: Gal(b1-4)GlcNAc6P
# In short: as §1
# [28] = target: Gal(b1-6)Gal
# In short: as §1
# [29] = target: Gal3S(b1-3)GalNAc
# In short: as §1
# [30] = target: Gal3S(b1-3)GlcNAc
# In short: as §1
# [31] = target: Gal3S(b1-3)[Fuc(a1-4)]GlcNAc
# In short: as §1
# [32] = target: Gal3S(b1-4)Glc
# In short: as §1
# [33] = target: Gal3S(b1-4)Glc6S
# In short: as §1
# [34] = target: Gal3S(b1-4)GlcNAc
# In short: as §1
# [35] = target: Gal3S(b1-4)GlcNAc6S
# In short: as §1
# [36] = target: Gal3S(b1-4)[Fuc(a1-3)]Glc
# In short: as §1
# [37] = target: Gal3S(b1-4)[Fuc(a1-3)]Glc6S
# In short: as §1
binder,measurement,setting,value
B1,glycan array binding signal (z-score),[1],-0.161
same,glycan array binding signal (z-score),[2],-0.238
same,glycan array binding signal (z-score),[3],-0.296
same,glycan array binding signal (z-score),[4],-0.215
same,glycan array binding signal (z-score),[5],-0.231
same,glycan array binding signal (z-score),[6],-0.219
same,glycan array binding signal (z-score),[7],-0.227
same,glycan array binding signal (z-score),[8],-0.198
same,glycan array binding signal (z-score),[9],-0.228
same,glycan array binding signal (z-score),[10],-0.234
same,glycan array binding signal (z-score),[11],-0.193
same,glycan array binding signal (z-score),[12],-0.193
same,glycan array binding signal (z-score),[13],-0.241
same,glycan array binding signal (z-score),[14],-0.303
same,glycan array binding signal (z-score),[15],-0.263
same,glycan array binding signal (z-score),[16],-0.265
same,glycan array binding signal (z-score),[17],-0.26
same,glycan array binding signal (z-score),[18],-0.309
same,glycan array binding signal (z-score),[19],-0.257
same,glycan array binding signal (z-score),[20],-0.108
same,glycan array binding signal (z-score),[21],-0.327
same,glycan array binding signal (z-score),[22],-0.304
same,glycan array binding signal (z-score),[23],-0.256
same,glycan array binding signal (z-score),[24],4.67
same,glycan array binding signal (z-score),[25],0.17
same,glycan array binding signal (z-score),[26],-0.264
same,glycan array binding signal (z-score),[27],-0.264
same,glycan array binding signal (z-score),[28],-0.283
same,glycan array binding signal (z-score),[29],-0.273
same,glycan array binding signal (z-score),[30],-0.648
same,glycan array binding signal (z-score),[31],-0.287
same,glycan array binding signal (z-score),[32],-0.172
same,glycan array binding signal (z-score),[33],-0.092
same,glycan array binding signal (z-score),[34],-0.148
same,glycan array binding signal (z-score),[35],-0.372
same,glycan array binding signal (z-score),[36],-0.3
same,glycan array binding signal (z-score),[37],-0.241

# Source: the supplement of paper PMC8728848
